From article PMC4336329 (PLoS ONE, 2015)
Screen size: about 310,000 compounds; about 2,200 (0.71%) showed an effect of 50% or more. Effects have a minus sign here. The list shows a part of the results.

Target: human ether-à-go-go-related gene (hERG) potassium channel (human, UniProt Q12809)
Assay: primary screen, population patch clamp on CHO cells stably expressing hERG

human ether-à-go-go-related gene (hERG) potassium channel, sequence (Q12809 whole entry, looked up): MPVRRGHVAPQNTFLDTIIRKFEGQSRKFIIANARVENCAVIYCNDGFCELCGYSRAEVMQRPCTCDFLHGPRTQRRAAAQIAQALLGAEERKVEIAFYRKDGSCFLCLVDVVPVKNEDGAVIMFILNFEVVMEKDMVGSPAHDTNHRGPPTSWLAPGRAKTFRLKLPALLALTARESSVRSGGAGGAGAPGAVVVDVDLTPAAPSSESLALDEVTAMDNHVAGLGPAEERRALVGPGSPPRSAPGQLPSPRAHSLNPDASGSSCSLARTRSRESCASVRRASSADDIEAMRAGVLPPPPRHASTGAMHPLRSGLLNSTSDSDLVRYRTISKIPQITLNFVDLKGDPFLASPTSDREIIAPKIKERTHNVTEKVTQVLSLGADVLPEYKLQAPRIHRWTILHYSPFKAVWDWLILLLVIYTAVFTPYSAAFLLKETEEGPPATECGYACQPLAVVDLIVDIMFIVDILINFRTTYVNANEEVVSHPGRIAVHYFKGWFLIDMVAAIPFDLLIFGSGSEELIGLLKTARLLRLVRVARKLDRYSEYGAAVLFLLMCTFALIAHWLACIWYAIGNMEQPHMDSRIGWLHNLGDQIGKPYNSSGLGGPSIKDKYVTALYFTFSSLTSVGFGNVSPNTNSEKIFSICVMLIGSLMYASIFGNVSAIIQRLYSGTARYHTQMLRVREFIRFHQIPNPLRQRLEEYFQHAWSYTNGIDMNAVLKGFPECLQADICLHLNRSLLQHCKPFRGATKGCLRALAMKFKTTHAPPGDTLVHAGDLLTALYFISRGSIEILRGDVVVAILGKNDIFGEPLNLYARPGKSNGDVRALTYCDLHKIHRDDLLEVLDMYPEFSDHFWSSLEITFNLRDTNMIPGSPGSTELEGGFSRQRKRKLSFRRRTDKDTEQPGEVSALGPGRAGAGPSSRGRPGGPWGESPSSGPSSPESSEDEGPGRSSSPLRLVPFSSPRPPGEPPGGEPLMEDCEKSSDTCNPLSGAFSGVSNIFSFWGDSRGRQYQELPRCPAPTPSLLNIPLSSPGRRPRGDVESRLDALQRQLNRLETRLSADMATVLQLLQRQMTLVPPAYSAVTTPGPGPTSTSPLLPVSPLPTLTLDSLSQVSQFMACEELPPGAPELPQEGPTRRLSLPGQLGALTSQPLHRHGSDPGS

SMILES | hERG current change (%, negative = inhibition) at 1uM [%]
Cc1ccccc1N(C(=O)c1snc(C(N)=O)c1N)C(C)C(=O)NC1CCCCC1 (centres unmarked) | 4.04
COc1ccc(C2C=C(C)Nc3nc(SC)nn32)cc1 (centres unmarked) | 8.75
Cc1ccc(-n2c(=S)[nH]c3[nH]ncc3c2=O)cc1 | -1.57
Cc1ccc(NC(=O)Cn2c(C)cc(C)c(C#N)c2=O)c(Cl)c1 | 11.5
CC(C)(CNC(=O)C1c2ccccc2-c2ccccc21)N1CCOCC1 | 10.7
COc1ccc(N(C)S(=O)(=O)c2cccc(C(=O)OCC(=O)NCc3ccccc3OC)c2)cc1 | 11.8
C/C(=N\N(C)C)C1=C(O)c2ccccc2C1=O | 12.1
COc1ccc(CCN(C)C(=O)CCc2nnc(-c3ccccc3)o2)cc1OC | 9.69
COCCNC(=O)CC(NS(=O)(=O)c1ccc(C)cc1)c1ccco1 (centres unmarked) | 11.4
Cc1ccc(C)c(N2CCN(C(=O)C(Cc3ccccc3)n3cccc3)CC2)c1 (centres unmarked) | 8.63
O=[N+]([O-])c1ccc(CSc2nc3ncc(Br)cc3[nH]2)cc1 | 12.7
C/C(=C\C(=O)c1ncc(C(F)(F)F)cc1Cl)N(C)C | 10.7
O=C(NNS(=O)(=O)c1ccc(F)cc1)c1ccc(S(=O)(=O)N2CCCCC2)cc1 | -4.46
CCOC(=O)c1c(C)[nH]c(C(=O)OCC(=O)N2CCN(S(=O)(=O)c3ccccc3)CC2)c1C | 12.4
ClCc1c2ccccc2cc2ccccc12 | 6.36
COc1ccc(CCSc2nnc(C3CCCCC3)n2N)cc1 | -0.986
C[C@H]1O[C@@H](n2cc(F)c(=O)[nH]c2=O)[C@H](O)[C@@H]1O | 2.33
CC(C(=O)NCCN1CCOCC1)c1ccc([N+](=O)[O-])cc1 (centres unmarked) | 15.3
O=C(CCc1c[nH]c2ccccc12)N[C@@H](Cc1c[nH]c2ccc(O)cc12)C(=O)O | 13.3
COc1ccc(NC(=O)c2cc(S(=O)(=O)N3CCCCC3)c[nH]2)cc1 | 5.15
O=C(CCc1nnc2ccc(NCc3ccccc3)nn12)N1CCC2(CC1)OCCO2 | 11
CCN(CC(=O)NCc1ccc(Cl)cc1)C(=O)/C=C/c1cccs1 | -9.59

SMILES | hERG current change (%, negative = inhibition) at 1uM [%]
COc1ccc(NC(=O)CN(C)Cc2cccs2)cc1Cl | 5.99
COc1ccc(Cl)cc1C(=O)N(Cc1nc(-c2cccc(C)c2)no1)C(C)C | 2.82
O=C(COC(=O)CSc1cc(Cl)ccc1Cl)Nc1ncc(C(F)(F)F)cc1Cl | 5.04
CCn1c(SCC(=O)N2CCCCC2)nnc1-c1ccc(S(=O)(=O)N2CCN(C)CC2)cc1 | -0.867
Nc1cc(=O)[nH]c(SCC(=O)Nc2cccc(Cl)c2Cl)n1 | 9.56
O/N=C1\CC/C(=N\O)c2nn(-c3ccc(Cl)cc3Cl)nc21 | 3.01
Cc1cccc(N2CCN(C(=O)c3nn(C)c4c3CS(=O)(=O)c3ccccc3-4)CC2)c1C | 4.53
COc1ncccc1C(=O)NC1CCCc2c1cnn2-c1cc(C)cc(C)c1 (centres unmarked) | 2.61
COc1c(S(=O)(=O)n2nc(C)cc2C)ccc(Cl)c1Cl | -7.5
CCOC(=O)c1cc(C)sc1NC(=O)CSC1=NCCS1 | 5
CCc1ccc(NC(=O)c2cc3c(C)nc4ccccc4c3o2)cc1 | 4.7
Cc1ccc(-c2nnc(-c3ccc(NC(=O)Cc4cccs4)cc3)o2)cc1 | 1.32
C/C(=C\C(=O)c1ccccc1)NCc1ccc(F)cc1 | 10
CC(C)(C)c1cc(=O)[nH]c(SCc2ccccc2)n1 | 20.5
CCOC(=O)Cc1csc(NC(=O)Nc2ccc(Cl)cc2)n1 | 11.8
CCOC(=O)C1CCN(c2c(NCc3ccc(C(=O)NCCOC)cc3)c(=O)c2=O)CC1 | 0.388
COc1ccc2oc(C(=O)NC3(C)CCS(=O)(=O)C3)c(C)c2c1 (centres unmarked) | 8.86
COc1ccc([C@@H]2[C@@H]3C(=O)N(C(C)(C)C)C(=O)[C@@H]3[C@]3(C)C(=O)N(c4cccc(Cl)c4)C(=O)N23)cc1 | 12.1
COc1cc(C(=O)Nc2ccccc2NC(=O)c2cc(OC)c(OC)c(OC)c2)cc(OC)c1OC | 9.73
O=C1C(=O)N(c2ccccc2)C(c2ccccc2[N+](=O)[O-])/C1=C(\O)c1ccccc1 (centres unmarked) | 7.37
O=[N+]([O-])c1cccc(C2=NCCC(c3ccccc3)O2)c1 (centres unmarked) | 1.93
COc1ccc(C(CNC(=O)c2ccc(OCC3CCCO3)cc2)N2CCOCC2)cc1 (centres unmarked) | 14.8

SMILES | hERG current change (%, negative = inhibition) at 1uM [%]
CCCCNC(=O)Cn1c(=O)c2c(ncn2CCC(C)C)n(Cc2ccccc2)c1=O | 14.1
Cc1cc(C)c2c(N)c(S(=O)(=O)c3ccccc3)sc2n1 | 7.06
N#Cc1ccsc1NC(=O)CSc1ncnc2ccccc12 | 9.17
Cc1cc(/C=N/Nc2ccc([N+](=O)[O-])cn2)c(C)n1-c1ccc(C(=O)O)cc1 | 13.3
CN(Cc1ccccc1)C(=O)CCn1c(=O)c2cccn2c2cccnc21 | 4.49
COc1ccc(-c2nnc(Sc3nc4ccccc4o3)c3ccccc23)cc1 | 1.11
Cc1ccc(/C=N/NC(=O)CSCc2ccc(Cl)cc2)cc1 | 13.6
O=C(Cn1cc(C(=O)c2ccccc2)c2ccccc21)NCc1ccco1 | 1.85
O=C(NCCc1ccccc1)C1CCC(Cn2c(=O)c3ccccc3n(Cc3cccc(F)c3)c2=O)CC1 (centres unmarked) | 13.6
COc1ccc(CCNC(=O)COC(=O)CCC(=O)c2ccc(F)cc2)cc1OC | 9.83
COc1ccccc1NC(=O)Nc1nc(CC(=O)N2CCN(c3ccccc3)CC2)cs1 | 7.19
O=C(CCCCCNC(=O)c1ccccc1)N/N=C/c1ccccc1O | 12.1
COC(=O)c1ccc(N2C(=O)CC(SCCN)C2=O)cc1 (centres unmarked) | 3.93
O=C1COc2ccc(C(=O)COC(=O)c3ncc(Cl)c(Cl)c3Cl)cc2N1 | 12.8
Cc1noc(C)c1CSCC(=O)Nc1cc(S(C)(=O)=O)ccc1Cl | 12.8
O=C(COC(=O)c1cc[n+]([O-])cc1)Nc1ccccc1Cl | 4.57
CN(CCC1CCOCC1)C(=O)c1cc(COc2c(F)cccc2F)on1 | -1.87
NC(=O)c1nn(Cc2ccccc2)c(=O)c2ccccc12 | 11.7
COc1cc(OC)c(NC(=O)CCCn2c(=O)oc3ccccc32)cc1Cl | 14
COc1cccc(/C=N/n2c(-c3ccco3)nc3ccccc3c2=O)c1 | 0.572
Cc1ccc(C(=O)NC(=S)NNC(=O)c2ccc([N+](=O)[O-])cc2)cc1 | 9.14
CC(=O)Nc1c(Br)cc(N2C(=O)CCC2=O)cc1Br | 7.86

SMILES | hERG current change (%, negative = inhibition) at 1uM [%]
Cc1onc(-c2c(Cl)cccc2Cl)c1C(=O)NC(=S)N1CCOCC1 | 14
COc1cc2c(cc1OC)C1(C)N(CC2)C(C(C)=O)=NN1c1ccc(Cl)cc1 (centres unmarked) | 11.6
N#CCOc1coc(CN2CCN(c3cccc(Cl)c3)CC2)cc1=O | 14.6
O.O=C(OCC1OC2C(Oc3nc(=O)ccn32)C1O)c1ccccc1 (centres unmarked) | 5.53
CC(C)N1C(=O)/C(=C\c2nc3ccccc3c(=O)[nH]2)c2ccccc21 | 10
CC(O/N=C\c1ccccc1O)C(=O)Nc1ccccc1C(=O)N1CCOCC1 (centres unmarked) | 15.5
CC(C(=O)NCC1CCCO1)n1cccc1C(=O)c1ccccc1 (centres unmarked) | 13.1
COC(=O)C1=C(O)/C(=C\c2ccc(CNS(=O)(=O)c3ccc(Cl)cc3)o2)N=C1C | 14.2
CC1(C)CC(=O)C2=C(C1)N(Cc1ccccc1)C(=O)C2(O)C(F)(F)F (centres unmarked) | 4.92
Cc1ccc(S(=O)(=O)N2Cc3ccccc3CC2C(=O)Nc2cc(C)on2)cc1 (centres unmarked) | 5.58
Cc1sc2nc(SCC(=O)Nc3c(C)n(C)n(-c4ccccc4)c3=O)n(C)c(=O)c2c1C | 10.3
COC(=O)c1cc(NS(=O)(=O)c2ccc(NC(C)=O)cc2)ccc1Cl | 13.1
Cc1nc(Sc2ccc(Br)cc2)c(C#N)c(C)c1[N+](=O)[O-] | 19.8
Cc1ccc(-n2nc3c(=O)n(CCCC(=O)NCc4cccc(F)c4)nc(C)c3c2C)cc1 | 7.09
O=C(O)c1cc(NC(=O)C2CCCO2)cc(C(=O)O)c1 (centres unmarked) | 23.3
COc1ccc([C@H]2CC(=O)C=C(c3ccc4c5c(cccc35)CC4)C2)cc1 | 16.6
CC(NC(=O)Cc1ccccc1)C1COc2ccccc2O1 (centres unmarked) | 4.69
CCOc1ccc(-c2nnc(SCC(=O)N3CCN(c4ccccc4)CC3)o2)cc1 | 7.47
CC(C)(C)C1(C)OC(C(N)=O)C(C(N)=O)O1 (centres unmarked) | 10.6
CC(=O)Nc1ccc(S(=O)(=O)Nc2ccc(C)c([N+](=O)[O-])c2)cc1 | -4.1
